Numbering of substitutions follows the chain as printed. Names may count otherwise. No constants are given. Whether binding was seen depends on the method and setting. In cells and extracts the contact can be indirect. Some binding calls cover weakened binding; strength is not graded here. Sequences can lack the tags named with a protein.
T1: GST-PLEKHA7 (human) WW1 + WW2 domain (1-162), WT (human) (UniProt Q6IQ23)
T1 sequence: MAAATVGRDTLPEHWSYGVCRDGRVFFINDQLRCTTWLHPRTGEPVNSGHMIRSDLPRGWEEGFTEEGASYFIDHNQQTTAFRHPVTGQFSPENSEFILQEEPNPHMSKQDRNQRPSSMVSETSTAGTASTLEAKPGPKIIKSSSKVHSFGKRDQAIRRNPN

T2: GST-PLEKHA7 (human) WW1 domain (residues 1-56), WT (human) (UniProt Q6IQ23)
T2 sequence: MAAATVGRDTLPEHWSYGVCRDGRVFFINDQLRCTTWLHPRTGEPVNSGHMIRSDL

T3: GST-PLEKHA7 (human) WW2 domain (50-162) (human) (UniProt Q6IQ23)
T3 sequence: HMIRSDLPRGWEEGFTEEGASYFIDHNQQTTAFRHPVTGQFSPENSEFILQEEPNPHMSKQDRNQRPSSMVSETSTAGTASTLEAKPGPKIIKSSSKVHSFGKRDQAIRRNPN

T4: GST-Tetraspanin 33 C-terminal (residues 256-283) (UniProt Q86UF1)
T4 sequence: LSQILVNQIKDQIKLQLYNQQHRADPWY

T5: GST-Tetraspanin 33 C-terminal Δ2 (deletion of the last 2 residues, Trp-Tyr) (UniProt Q86UF1)
T5 sequence: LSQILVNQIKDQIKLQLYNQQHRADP

T6: GST-PDZD11 full-length (residues 1-140), WT (human) (UniProt Q5EBL8)
T6 sequence: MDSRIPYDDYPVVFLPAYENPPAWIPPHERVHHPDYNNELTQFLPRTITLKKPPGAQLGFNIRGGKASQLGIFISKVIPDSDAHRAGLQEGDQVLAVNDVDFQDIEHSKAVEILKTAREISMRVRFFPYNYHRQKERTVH

B1: PLEKHA7-WW(1 + 2)-Myc (residues 1-162), WT (domain or fragment, UniProt Q6IQ23 1-162)
chain: T1 sequence
B2: PLEKHA7-WW(1 + 2)-Myc (residues 1-162) D30A (domain or fragment, UniProt Q6IQ23 1-162)
chain: T1 sequence with D30A
B3: PLEKHA7-WW(1 + 2)-Myc (residues 1-162) T35A (domain or fragment, UniProt Q6IQ23 1-162)
chain: T1 sequence with T35A
B4: PLEKHA7-WW(1 + 2)-Myc (residues 1-162) H75A (domain or fragment, UniProt Q6IQ23 1-162)
chain: T1 sequence with H75A
B5: PLEKHA7-WW(1 + 2)-Myc (residues 1-162) D30A+H75A (domain or fragment, UniProt Q6IQ23 1-162)
chain: T1 sequence with D30A, H75A
B6: PLEKHA7-WW(1 + 2)-Myc (residues 1-162) T35A+H75A (domain or fragment, UniProt Q6IQ23 1-162)
chain: T1 sequence with T35A, H75A
B7: PLEKHA7-WW(2)-Myc (residues 50-162) (domain or fragment, UniProt Q6IQ23 50-162)
chain: T3 sequence

What was measured:
[1] = target: T1, GST-PLEKHA7 (human) WW1 + WW2 domain (1-162), WT (human); assay: pull-down; GST-WW1, GST-WW2 and GST-WW1 + 2 of PLEKHA7 against the isolated WW2 domain or the WW1 + 2 domain (Fig. S4A); only the target purified
[2] = target: T2, GST-PLEKHA7 (human) WW1 domain (residues 1-56), WT (human); assay: as above
[3] = target: T3, GST-PLEKHA7 (human) WW2 domain (50-162) (human); assay: as above
[4] = target: T4, GST-Tetraspanin 33 C-terminal (residues 256-283); assay: pull-down; tri-molecular pulldown: GST-Tspan33 C-terminal bait, WW1 + WW2 preys, with PDZD11-HA as third protein (CFP-HA as negative control); only the target purified
[5] = target: T4, GST-Tetraspanin 33 C-terminal (residues 256-283); assay: pull-down; GST-Tspan33 C-terminal baits (E. coli) on GSH-Sepharose beads, PLEKHA7-WW(1 + 2)-Myc WT or mutant preys in lysate, no third protein; immunoblot; only the target purified
[6] = target: T5, GST-Tetraspanin 33 C-terminal Δ2 (deletion of the last 2 residues, Trp-Tyr); assay: as above
[7] = target: T6, GST-PDZD11 full-length (residues 1-140), WT (human); assay: pull-down; bait and prey switched: GST-PDZD11 as bait on GSH-Sepharose beads, WT or mutant WW1 + WW2 domains of PLEKHA7 as preys in lysate (Fig. S2, G and H); only the target purified

| Binder | binding [1] | binding [2] | binding [3] | binding [4] | binding [5] | binding [6] | binding [7] |
| --- | --- | --- | --- | --- | --- | --- | --- |
| B1 | no binding | no binding | no binding | binds | binds | no binding | binds |
| B2 | – | – | – | – | no binding | – | binds |
| B3 | – | – | – | – | no binding | – | binds |
| B4 | – | – | – | – | no binding | – | binds |
| B5 | – | – | – | – | no binding | – | no binding |
| B6 | – | – | – | – | no binding | – | no binding |
| B7 | no binding | no binding | no binding | – | – | – | – |
